This note sets out measurements from PMC6602471.

The other results are listed elsewhere or left out. At the low end of the ranking, values are background and their order means little.

The target of the experiment is T1, ELK1 (UniProt P19419).
T1 sequence: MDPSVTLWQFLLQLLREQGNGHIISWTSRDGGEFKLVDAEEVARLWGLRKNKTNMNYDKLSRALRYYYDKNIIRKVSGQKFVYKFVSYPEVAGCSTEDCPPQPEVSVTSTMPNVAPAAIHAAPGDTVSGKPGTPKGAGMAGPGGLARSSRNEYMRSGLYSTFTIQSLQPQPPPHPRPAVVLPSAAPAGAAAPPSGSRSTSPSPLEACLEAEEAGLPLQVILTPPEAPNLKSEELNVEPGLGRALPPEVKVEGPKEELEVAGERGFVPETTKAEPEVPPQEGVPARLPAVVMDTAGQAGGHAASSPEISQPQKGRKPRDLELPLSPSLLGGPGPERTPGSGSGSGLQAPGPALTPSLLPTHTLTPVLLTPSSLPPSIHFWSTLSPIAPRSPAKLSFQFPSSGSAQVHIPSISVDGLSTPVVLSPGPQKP
In words: custom PBM. Conditions: custom protein-binding microarray; buffer, salt, pH and temperature not stated; high values mean tight binding; double strand, one strand shown.
“CTGGGACTTGACCCAACTCTGCCACGTGGCTCGTTTGTCTTGATTCGCTTGACGCTGCTG”: the binding signal (log fluorescence intensity) was determined as 9.01. With “TAAAGGGAAGACGGTTGTGGCAGTTCCGGGTATTAAGTCTTGATTCGCTTGACGCTGCTG” the figure was 11.2. Then “CACAATTTTTACAGTAATGTAGCACTCGTAACTCCTGTCTTGATTCGCTTGACGCTGCTG”, with 8.7; and “CGGAAGTGTCGTAAACGTCGGATATCCGGTTCTTCGGTCTTGATTCGCTTGACGCTGCTG”, with 12.4. As to “TGACGGGTAAGGGAATGTAGATCACGTGAATGAAAAGTCTTGATTCGCTTGACGCTGCTG”, the binding signal (log fluorescence intensity) was determined as 8.82. Then “CACAATTTTTACGGTAATGTAGCACGCGTAACTCCTGTCTTGATTCGCTTGACGCTGCTG”, with 8.85. Take “TAAAGGGCAGACGGTTGTGGTAGTTCCGGGTATTAAGTCTTGATTCGCTTGACGCTGCTG”: the binding signal (log fluorescence intensity) amounted to 11. Consider “CACAATTTTTACAGTAATGTAGCACGCGAAACTCCTGTCTTGATTCGCTTGACGCTGCTG”, for which the binding signal (log fluorescence intensity) came to 8.87. Regarding “TACTTACTTATATATGCGAATGCACATGAATAGACCGTCTTGATTCGCTTGACGCTGCTG”, the binding signal (log fluorescence intensity) came to 9.06. Then “GATTAATTTCTGCACTTATTCGCACGTGCCATAACAGTCTTGATTCGCTTGACGCTGCTG”, with 8.99; and “CTGCGACTTGACCCAACTCTGCCACGTGGGTCGTTTGTCTTGATTCGCTTGACGCTGCTG”, with 8.96; and “CGGAAGTGTCGTAACCGTCGGATATCCGGTTCTTCTGTCTTGATTCGCTTGACGCTGCTG”, with 12.5.

Consider “GCTGCTGCGGTGCAGACCCCACCGGATGTGACCCCGGTCTTGATTCGCTTGACGCTGCTG”, for which the binding signal (log fluorescence intensity) worked out at 10.2. Turning to “TCCGGCTACCAGCTCCACCCACTGCAGGCCTTGTAGGTCTTGATTCGCTTGACGCTGCTG”, the binding signal (log fluorescence intensity) was 8.95. As for “TGTCGGGTAAGGGAATGTAGTTCACGTGAATGAAAAGTCTTGATTCGCTTGACGCTGCTG”, the binding signal (log fluorescence intensity) is 8.78. With “CGGAAGTGTCGTAAACGTCGGATATCCGGTTCTGCTGTCTTGATTCGCTTGACGCTGCTG”, the binding signal (log fluorescence intensity) is 12.5.

“CTGGGACTTGACCCTACTCTGCCACGTGGGTCGTTTGTCTTGATTCGCTTGACGCTGCTG”: the binding signal (log fluorescence intensity) stood at 8.91. With “GCTGCTGCGGTGCATACCCCCCCGGATGTGACCCCGGTCTTGATTCGCTTGACGCTGCTG”, the binding signal (log fluorescence intensity) came to 9.57. As to “CAGCATAGGACTTCTTCCCTGATGCAATTGATAACCGTCTTGATTCGCTTGACGCTGCTG”, the binding signal (log fluorescence intensity) stood at 8.84.

For “CGGAAGTGTCGTAAACGTCGGATATCCGGTTCTCCTGTCTTGATTCGCTTGACGCTGCTG”, the binding signal (log fluorescence intensity) came out at 12.6. Then “CTGGGTCTTGACCCAACTCTGCCACGTGGGTCGTTTGTCTTGATTCGCTTGACGCTGCTG”, with 8.93. Regarding “TAAAGGGAAGACGGTTGTAGTAGTTCCGGGTATTAAGTCTTGATTCGCTTGACGCTGCTG”, the binding signal (log fluorescence intensity) worked out at 11.3. With “GATTAATGTCTGCCCTTATTCGCACGTGCCATAACAGTCTTGATTCGCTTGACGCTGCTG” the figure was 8.85. With “CTCGGACTTGACCCAACTCTGCCACGTGGGTCGTTTGTCTTGATTCGCTTGACGCTGCTG” the figure was 8.77.

With “TCCGGCTACCAGCTCCACCCCCTTCAGGCCTTGTAGGTCTTGATTCGCTTGACGCTGCTG”, the binding signal (log fluorescence intensity) stood at 8.87. For “TACTGACTTATATACGCGAATGCACATGAATAGACCGTCTTGATTCGCTTGACGCTGCTG”, the binding signal (log fluorescence intensity) is 8.93. Then “CAGCTTAGGACTTCTTCCCTGAAGCAATTGATAACCGTCTTGATTCGCTTGACGCTGCTG”, with 8.81; and “CACAATTTTTACAGTAATGTAGCCCGCGTAACTCCTGTCTTGATTCGCTTGACGCTGCTG”, with 8.91; and “TCCCGCTACCAGCTCCACCCACTTCAGGCCTTGTAGGTCTTGATTCGCTTGACGCTGCTG”, with 8.83.

As for “CTGGGACTTGACCCAACTCTGCCACGTGGGCCGTTTGTCTTGATTCGCTTGACGCTGCTG”, the binding signal (log fluorescence intensity) was found to be 9.05. As to “TAAAGGGGAGACGGTTGTGGTAGTTCCGGGTATTAAGTCTTGATTCGCTTGACGCTGCTG”, the binding signal (log fluorescence intensity) is 11.2. With “CACAATTTTTACACTAATGTAGCACGCGTAACTCCTGTCTTGATTCGCTTGACGCTGCTG”, the binding signal (log fluorescence intensity) came to 8.83.

Regarding “CACAATTTTTACAGTAATGTAGCACGCTTAACTCCTGTCTTGATTCGCTTGACGCTGCTG”, the binding signal (log fluorescence intensity) amounted to 8.8. In the case of “GTGTATAGAATCCCATCCAACACACGTGTTAAAATGGTCTTGATTCGCTTGACGCTGCTG”, the binding signal (log fluorescence intensity) was 8.97. On to “CAGCATAGGACTTCTTCCATGAAGCAATTGATAACCGTCTTGATTCGCTTGACGCTGCTG”, for which the binding signal (log fluorescence intensity) came to 8.94.

Consider “CGGAAGTGTCGTAAACGTCGGAAATCCGGTTCTTCTGTCTTGATTCGCTTGACGCTGCTG”, for which the binding signal (log fluorescence intensity) was 11.9. Consider “CGGAAGTGTCGTAAACGTCGGATATCCGGTCCTTCTGTCTTGATTCGCTTGACGCTGCTG”, for which the binding signal (log fluorescence intensity) is 12.6. With “CTGGGACTTGACCCAACTCTTCCACGTGGGTCGTTTGTCTTGATTCGCTTGACGCTGCTG” the figure was 8.84; with “GATTAATTTCTGCCCTGATTCGCACGTGCCATAACAGTCTTGATTCGCTTGACGCTGCTG”, 8.88; with “GCTGCTGAGGTGCATACCCCACCGGATGTGACCCCGGTCTTGATTCGCTTGACGCTGCTG”, 10.2.
